Source: publication PMC4336329 (PLoS ONE, 2015)
In all, about 310,000 compounds went through this assay and about 2,200 (0.71%) showed an effect of 50% or more. The effect is printed as a negative number. Some of the results follow.

Molecular target: human ether-à-go-go-related gene (hERG) potassium channel (human, UniProt Q12809)
Assay: primary screen, population patch clamp on CHO cells stably expressing hERG

Chain of human ether-à-go-go-related gene (hERG) potassium channel (Q12809 whole entry, looked up): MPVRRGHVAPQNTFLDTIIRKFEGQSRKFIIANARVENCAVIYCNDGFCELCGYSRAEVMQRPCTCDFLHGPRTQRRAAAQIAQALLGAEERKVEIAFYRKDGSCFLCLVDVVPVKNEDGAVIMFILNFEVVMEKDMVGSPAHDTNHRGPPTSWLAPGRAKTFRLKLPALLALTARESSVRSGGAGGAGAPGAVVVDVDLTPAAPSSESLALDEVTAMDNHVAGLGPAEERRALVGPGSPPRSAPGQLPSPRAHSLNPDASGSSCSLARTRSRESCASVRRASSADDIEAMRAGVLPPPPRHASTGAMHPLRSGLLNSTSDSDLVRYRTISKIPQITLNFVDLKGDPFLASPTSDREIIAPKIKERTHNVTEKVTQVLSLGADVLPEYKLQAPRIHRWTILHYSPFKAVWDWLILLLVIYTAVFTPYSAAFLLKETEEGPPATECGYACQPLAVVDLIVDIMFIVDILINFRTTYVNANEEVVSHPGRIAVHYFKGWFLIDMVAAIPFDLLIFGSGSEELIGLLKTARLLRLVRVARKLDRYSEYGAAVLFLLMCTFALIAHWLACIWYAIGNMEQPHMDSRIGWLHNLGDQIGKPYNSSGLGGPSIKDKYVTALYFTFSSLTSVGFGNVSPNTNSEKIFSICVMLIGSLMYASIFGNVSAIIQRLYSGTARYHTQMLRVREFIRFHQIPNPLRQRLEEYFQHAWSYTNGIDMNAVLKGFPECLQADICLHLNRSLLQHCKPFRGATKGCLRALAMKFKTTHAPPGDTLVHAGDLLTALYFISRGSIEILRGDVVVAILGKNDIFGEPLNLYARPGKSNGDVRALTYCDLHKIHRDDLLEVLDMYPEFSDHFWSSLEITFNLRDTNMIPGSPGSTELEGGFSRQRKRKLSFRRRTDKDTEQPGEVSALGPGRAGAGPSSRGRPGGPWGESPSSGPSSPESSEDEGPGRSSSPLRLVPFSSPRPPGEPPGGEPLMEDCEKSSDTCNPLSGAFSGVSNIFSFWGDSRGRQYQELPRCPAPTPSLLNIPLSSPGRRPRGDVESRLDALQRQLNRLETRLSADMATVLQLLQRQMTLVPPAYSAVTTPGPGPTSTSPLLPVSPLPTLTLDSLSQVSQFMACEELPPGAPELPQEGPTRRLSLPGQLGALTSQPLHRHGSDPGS

SMILES | hERG current change (%, negative = inhibition) at 1uM [%]
Cc1sc2ncnc(NC3CCN(Cc4ccccc4)CC3)c2c1C | -56.9
O=C(c1ccc(Cl)c(S(=O)(=O)N2CCCCCC2)c1)N1CCN(c2ccccn2)CC1 | -0.772
COc1ccc(C2CC(=O)N3CN(c4ccc(C)c(Cl)c4)CSC3=C2C#N)cc1 (stereo not shown) | 14.5
CCOc1cc(/C=N/N=C2/NC(=O)C(CC(=O)O)S2)ccc1OCc1ccc(Cl)cc1Cl (stereo not shown) | 11.4
CCOc1ccc(OCC(=O)Nc2ccc(S(N)(=O)=O)cc2)cc1 | 5.92
O=C(CP(=O)(c1ccccc1)c1ccccc1)Nc1nc2ccccc2s1 | 16.5
CSc1cccc(NC(=O)c2ccc(CN3CCc4ccccc4C3)cc2)c1 | 6.61
CCCCCc1cc(=O)oc2c(C(CCN3CCCC3)c3ccc(N(C)C)cc3)c(OC)cc(OC)c12 (stereo not shown) | -11.1
Cc1noc(C)c1CSc1nnc(-c2ccncc2)n1-c1cccc(Cl)c1C | -10.3
O=C(CNS(=O)(=O)c1cccc(Cl)c1)Nc1ccc(-c2nc3ccccc3s2)cc1 | 1.7
CCOC(=O)C(C)Sc1nc(N)c(NC(=O)c2ccc(OC)c(OC)c2)c(=O)[nH]1 (stereo not shown) | -1.17
Cc1cc(=O)oc2c3c4c(cc12)OCCN4CCC3 | -0.204
COc1ccccc1CN(C(=O)CNC(=O)c1ccco1)C(C(=O)NCC1CCCO1)c1ccc(OC)c(OC)c1 (stereo not shown) | 14.6
CC(c1ccccc1)c1nnc(N)s1 (stereo not shown) | 13.2
Cc1cccc(NC(=O)c2cc(Cl)nc3ccccc23)n1 | 2.99
COc1ccc(S(=O)(=O)N2CCN(Cc3cccc(Cl)c3)CC2)cc1 | 5.88
CCCCOC(=O)Nc1ccc2c(C)cc(=O)oc2c1 | 4.39
O=C(NCc1ccc2c(c1)OCO2)c1ccc(COc2cccc(Cl)c2)o1 | 9.76
O=C1c2ccccc2S(=O)(=O)N1Cc1nc2ccccc2s1 | 2.32
Cc1cccc(-n2c(N)c(-c3nc4ccccc4n3C)c3nc4ccccc4nc32)c1 | 4.83
O=C(Nc1ccc(Cl)cc1)c1ccc2c(c1)OCO2 | 18.8
CCNC(=S)NN(c1ccccc1)c1ccccc1 | 8.24

SMILES | hERG current change (%, negative = inhibition) at 1uM [%]
N#Cc1c(-c2ccccc2)nc(-c2cccnc2)[nH]c1=O | 17.6
C=C(C)Cn1c(=O)c2c(nc3n2CCCN3Cc2ccccc2)n(C)c1=O | 2.67
CCN(C(=O)COC(=O)c1ccc(Cl)cc1N)C1CCCCC1 | -0.094
CCc1ccc(-c2cc(C)no2)cc1S(=O)(=O)N1CC(=O)Nc2ccccc21 | 7.97
COc1ccc([N+](=O)[O-])cc1NC(=O)C1CCCNC1=O (stereo not shown) | 6.16
Cc1ccc(S(=O)(=O)C2C(=O)NC3(C)CC2c2ccccc2O3)cc1 (stereo not shown) | 8.54
CS(=O)(=O)c1ccc(Cl)c(NC(=O)COC(=O)CNC(=O)c2cccs2)c1 | 0.477
Cc1cccc(CSc2nnc(NC(=O)c3ccco3)s2)c1 | 1.97
COc1cc2c(cc1OC)C(C)N(C(=O)Nc1ccc(F)cc1)CC2 (stereo not shown) | 7.11
Cc1nc(N2CCN(C(=O)CCC(=O)O)CC2)c2c(C)c(C)sc2n1 | -4.32
COc1ccc(CN(C)S(=O)(=O)c2ccc3c(c2)OCCO3)cc1 | 0.474
COCc1cc(C)n(CC(=O)Nc2ccccc2C(=O)OC)c(=O)c1C#N | 10.1
COc1ccc(CNC(=O)CN2C(=O)C(C)N(c3ccc(C)cc3)C2=O)cc1 (stereo not shown) | 4.88
Cc1ccc(S(=O)(=O)N2CCCCC2)cc1C(=O)Nc1ccc(S(=O)(=O)Nc2ncccn2)cc1 | 10
COc1cc(C(=O)OCC(=O)NC(=O)NCc2ccccc2)ccc1OC(F)F | 14.4
CN1CCc2c(sc(NC(=O)C3COc4ccccc4O3)c2C(N)=O)C1.Cl (stereo not shown) | -6.24
Cc1ccc(N/C=C(\C#N)c2ccc(OCCCF)cc2)cc1 | 5.99
CNC(=O)NC(=O)Cn1nc2n(c1=O)-c1ccccc1SC2 | 8.89
COc1cc(CN2CCN(Cc3ccc(SC)cc3)CC2)cc(OC)c1O.O=C(O)C(=O)O | -20.8
C=CCNC(=O)COc1coc(CN2CCN(Cc3ccccc3)CC2)cc1=O | 5.17
CCOc1cc(CNn2nnnc2N)cc(Cl)c1OCC(=O)NC(C)(C)C | -4.94
CCOc1ccc(NC(=S)Nc2ccccc2C2CC2)cc1 | 12

SMILES | hERG current change (%, negative = inhibition) at 1uM [%]
CCCCSc1nnc(-c2c[nH]c3ccccc23)n1C | -1.83
COc1ccc2cc(CN(CC3CCCO3)S(=O)(=O)c3ccccc3)c(=O)[nH]c2c1 (stereo not shown) | 3.71
N#C/C(=C/c1ccc(N2CCCCC2)cc1)c1cccc(F)c1 | 3.4
CCC(C)NC(=O)C1CCCN(S(=O)(=O)c2ccc3c(c2)CC(C)N3C(C)=O)C1 (stereo not shown) | -4.49
O=C(NCc1ccco1)c1cc(-c2cccnc2)nc2ccccc12 | -5.6
O=C(Nc1ccccc1)c1cc(S(=O)(=O)Nc2cccnc2)ccc1Cl | 3.29
Cc1nnc(C)n1N1C(=O)c2cccc3cccc(c23)C1=O | 2.26
COc1cccc(OCC(=O)Nc2ccccc2C(=O)Nc2ccc(C(=O)O)cc2)c1 | 15.6
CC(C(=O)N1CCCC1)N1CCN(S(=O)(=O)c2ccc(OC(F)(F)F)cc2)CC1 (stereo not shown) | -3.11
CCCn1c(C)cc(/C=C(\C#N)C(=O)OCC(=O)N(C)c2c(N)n(Cc3ccccc3)c(=O)[nH]c2=O)c1C | 11
COC(=O)C1=C(N)Oc2cc(C)n(Cc3ccncc3)c(=O)c2C1c1cccnc1 (stereo not shown) | 0.872
OC1CCNC(=S)N1c1ccccc1 (stereo not shown) | 5.64
COc1cccc(NC(=O)CN2C(=O)COc3ccc(S(=O)(=O)N4CCC(C)CC4)cc32)c1 | 6.58
O=C(NCCSc1c[nH]c2ccccc12)c1c(F)cccc1F | -2.75
O=C(COc1nnnc2ccccc12)N1CCCc2ccccc21 | -8.94
Cc1cc(N/C=C\C(=O)c2ccc(Cl)c(Cl)c2)no1 | 6.94
Cc1cc(C)c(NC(=O)CN(C)S(=O)(=O)c2ccc3c(c2)n(C)c(=O)c(=O)n3C)c(C)c1 | 9.07
Cc1ccc(CN2CC(C(=O)NC3CCCC(C)C3C)CC2=O)cc1 (stereo not shown) | -30.4
Cc1cc2c(cn1)C(CCC#N)(CCC#N)c1ccccc1-2 | 15
CC(C)OC(=O)C(CC(=O)O)N1CCOCC1 (stereo not shown) | 12.1
CCOC(=O)C1=C(CC)NC2=C(C(=O)CCC2)C1c1ccc(OC)c(OC)c1 (stereo not shown) | -0.785
Cn1c(Cc2ccccc2)n[nH]c1=S | 15.2

SMILES | hERG current change (%, negative = inhibition) at 1uM [%]
O=C(NCCCn1ccnc1)c1ccc2nccnc2c1 | 11
O=S1(=O)[C@H]2C[C@@H]3C=C[C@@]2(CN1Cc1cccc(C(F)(F)F)c1)O3 | 7.76
CCOc1ccc2nc(N3CCOCC3)nc(C)c2c1 | 6.82
Cc1cc(C)c2c(c1)-c1cc(C)nn1C(c1ccc3c(c1)OCO3)N2 (stereo not shown) | 8.12
CC(=O)NC1=NN(C(C)=O)C(C)(c2ccccc2)S1 (stereo not shown) | 19.5
COc1ccc(C(=O)COC(=O)CCN2C(=O)C3C4CCC(C4)C3C2=O)cc1 (stereo not shown) | 5.64
COc1cccc(NC(=O)CN(C)C(=O)Cc2ccc(Cl)cc2Cl)c1 | 14.8
Cc1ccc(F)cc1NS(=O)(=O)c1ccc(Cl)s1 | 7.81
O=C(CCc1nnc(Cc2cccc(C(F)(F)F)c2)o1)NCCc1ccccc1F | 14.9
COc1ccc(OC)c(CNC(=O)C2CCCN(C(=O)N(C)C)C2)c1 (stereo not shown) | 10.5
O=C(CCS(=O)(=O)c1ccccc1)Nc1nc2c(s1)CCCC2 | 7.84
O=C(NCc1ccccc1Cl)C1CCCN(S(=O)(=O)c2cccc3nsnc23)C1 (stereo not shown) | -0.909
CCOc1ccccc1/C=N/NC(=O)c1c(C)nc2ccc(Br)cn12 | 18.2
Cc1cc(N2CCN(c3ccc(F)cc3)CC2)nc(-c2ccccc2)n1 | -1.49
CNC(=O)c1cc2c(cn1)[nH]c1ccccc12 | 30.5
Cc1cccc(N2CC(=O)N(c3cccc(C)c3)CC2=O)c1 | -2.56
O=C1CCC(c2ccc3c(c2)CCC3)=NN1 | 14.2
CCc1ccc(NC(=O)N2CCN(C(=O)C3CCCO3)CC2)cc1 (stereo not shown) | 13
N#C/C(=C\c1cccs1)C(=O)Nc1nccs1 | 6.72
CCN(CC(=O)Nc1ccc(C)c(F)c1)CC(=O)NC(C)C | 8.87
O=C(CCC(=O)N1CCN(S(=O)(=O)c2ccccc2)CC1)c1cccs1 | -1.07
COc1ccccc1C(c1nnnn1Cc1ccccc1)N1CCN(C2CCCC2)CC1.Cl (stereo not shown) | -5.39
